Experimental data reported in PubChem BioAssay AID360 (National Center for Advancing Translational Sciences (NCATS), 2006).
The whole screen tested about 48,000 compounds, of which about 550 (1.1%) were called active. Roughly 4% stayed inconclusive and do not appear here. Cut-off read from the data, not from the text of the source: active = potency below about 15 µM; inconclusive = mostly about 16 µM to 33 µM; inactive = weaker than that. The list shows a part of the results.

molecular target: Lysosomal acid glucosylceramidase (Homo sapiens) (UniProt P04062); experiment: Glucocerebrosidase; settings: purified enzyme, resorufin glucoside fluorescence (screen aimed at inhibitors), 20 min;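 note: the screen sought inhibitors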
How it was run: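 Compounds titrated against 0.2 nM normal enzyme, 30 uM resorufin beta-D-glucopyranoside substrate, citrate/phosphate buffer with taurocholate and tween-20, pH 5.9. Reaction ran 20 min at room temperature; fluorescence (Ex 548/Em 600) gave AC50.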
Potency is the fitted concentration of half-maximal effect.

UniProt P04062, sequence (P04062 whole entry, looked up): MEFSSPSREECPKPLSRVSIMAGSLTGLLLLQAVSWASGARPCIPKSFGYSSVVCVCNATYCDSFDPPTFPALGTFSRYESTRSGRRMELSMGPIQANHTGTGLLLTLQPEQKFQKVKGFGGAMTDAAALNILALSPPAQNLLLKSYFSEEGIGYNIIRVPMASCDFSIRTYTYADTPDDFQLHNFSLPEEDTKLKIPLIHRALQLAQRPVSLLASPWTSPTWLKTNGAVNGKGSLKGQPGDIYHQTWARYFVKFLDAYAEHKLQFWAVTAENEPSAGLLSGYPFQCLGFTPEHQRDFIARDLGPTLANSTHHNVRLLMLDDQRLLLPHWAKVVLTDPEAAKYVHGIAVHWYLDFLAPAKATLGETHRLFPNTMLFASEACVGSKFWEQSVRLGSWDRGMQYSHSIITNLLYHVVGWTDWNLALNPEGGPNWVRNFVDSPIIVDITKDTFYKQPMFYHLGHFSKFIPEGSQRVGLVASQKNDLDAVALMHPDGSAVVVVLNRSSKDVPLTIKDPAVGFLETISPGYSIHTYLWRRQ

Potency, inactive:
COc1ccccc1CNC(=O)CCCNS(=O)(=O)c1cccc2nsnc12 > 76.9 µM, COc1ccc(S(=O)(=O)N(CCc2ccccc2)CC(=O)NCCCO)cc1 > 76.9 µM, CC(C(=O)N1CCOCC1)(c1ccccc1)c1ccccc1 > 76.9 µM, CCOC(=O)C1=CN(C)C=C(C(=O)OCC)C1c1ccsc1 > 76.9 µM, CSc1nc2c(c(=O)n1Cc1ccccc1)SC(C)C2 (configuration not stated) > 76.9 µM, COc1ccc(NC(=O)CSc2nc(NS(=O)(=O)c3ccccc3)cc(=O)[nH]2)cc1 > 76.9 µM, COC(=O)c1[nH]c2ccccc2c1NC(=O)CN1CCN(C(=O)c2ccco2)CC1 > 76.9 µM, COc1cc(CNC2CCCCCC2)cc(OC)c1OC > 76.9 µM, COC(=O)c1nc(-c2ccc(C)cc2)oc1N(C)C > 76.9 µM, c1ccc(Cc2nnc(-c3ccccc3)o2)cc1 > 76.9 µM, CCCC(=O)Nc1cc(-c2nnc(OC)c3ccccc23)ccc1N1CCOCC1 > 76.9 µM, Cc1cc2cc(CNC(=O)Nc3ccccc3)ccc2n1C > 76.9 µM, CCOC(=O)C1=C(CSc2nncn2C)NC(=O)NC1c1cc(OCC)ccc1OCC (configuration not stated) > 76.9 µM, Cc1ccc(-n2nnnc2SC(C)C(=O)Nc2ccc(Cl)cn2)cc1 (configuration not stated) > 76.9 µM, C=CCN1C(=O)C(O)(CC(=O)c2ccccc2)c2ccccc21 (configuration not stated) > 76.9 µM, Nc1ccc2c(c1)C(=O)N(CC1CCCO1)C2=O (configuration not stated) > 76.9 µM, COc1ccc(S(=O)(=O)N2CCn3c2nc2ccccc23)cc1 > 76.9 µM, CC(=O)Nc1cccc(NC(=O)CSc2nnc(Cc3cccn3C)n2-c2ccc(F)cc2)c1 > 76.9 µM, O=C(NCC1CCCO1)c1cccc(-n2cnnn2)c1 (configuration not stated) > 76.9 µM, CCC(=O)N1CCc2cc(S(=O)(=O)NCCCN3CCN(Cc4ccccc4)CC3)ccc21 > 76.9 µM, Cn1c(=O)cc(OCC(=O)NCCCN2CCN(c3ccccc3F)CC2)c2ccccc21 > 76.9 µM, Cn1c(C(=O)OCC(=O)NCC2CCCO2)cc2sccc21 (configuration not stated) > 76.9 µM, Cc1[nH]c2ccccc2c1C(=O)CSCC(=O)O > 76.9 µM, CCOC(=O)c1sc(NC(=O)CSc2nnc(C(C)C)n2CC)nc1C > 76.9 µM, CS(=O)(=O)N(CC(=O)N1CCOCC1)Cc1ccccc1 > 76.9 µM, O=C(Nc1ccccc1Oc1ccccc1)c1cnccn1 > 76.9 µM, CCCN(Cc1cc2cc(OC)ccc2[nH]c1=O)C(=O)c1ccncc1 > 76.9 µM, CCN(CC)CCCN1C(=O)C(O)=C(C(=O)c2ccco2)C1c1cc(OC)ccc1OC (configuration not stated) > 76.9 µM, Cc1csc(NC(=O)c2ccccc2C(=O)O)n1 > 76.9 µM, COC(=O)c1ccc(NC(=O)Cn2nnc3ccccc32)cc1 > 76.9 µM, CCC(C)NC(=O)c1cnn2c(C)c3c(nc12)CCCC3 (configuration not stated) > 76.9 µM, O=C(CC1COc2ccccc2O1)NCc1ccccc1 (configuration not stated) > 76.9 µM, COc1ccc(CC(=O)NC(CC(=O)O)c2ccc(OC)cc2)cc1 (configuration not stated) > 76.9 µM, COc1ccccc1-n1c(C)nc(=O)c(-c2ccccc2)c1C > 76.9 µM, CCCC(=O)Nc1ccc(-c2nc3cc(C)ccc3o2)cc1 > 76.9 µM, Cc1ccc(Nc2ncccc2C(=O)O)cc1C > 76.9 µM, Cc1csc(NC(=O)CSc2nc(C)cs2)n1 > 76.9 µM, Cn1c(=O)n(C/C=C/c2ccccc2)c(=O)c2c1nc1n2CCCN1Cc1ccccc1 > 76.9 µM, COc1cccc(C2=NOC(C(=O)NCCN3CCOCC3)C2)c1 (configuration not stated) > 76.9 µM, O=C(Nc1c(-c2ccccc2)nc2c(Br)cc(Br)cn12)c1ccco1 > 76.9 µM, Cc1ccc2cc(CN(C(=O)c3ccncc3)C(C)C)c(=O)[nH]c2c1 > 76.9 µM, CC(=O)c1cnc2nc(C(F)(F)F)nn2c1C > 76.9 µM, COc1cc2c(cc1NC(=O)C1CCCO1)oc1ccccc12 (configuration not stated) > 76.9 µM, COCCCNC(=O)c1oc2ccc(S(=O)(=O)N(C)C3CCCCC3)cc2c1C > 76.9 µM, CCCc1cc(C(N)=O)c(NC(=O)c2cc(C)on2)s1 > 76.9 µM, COc1ccc(CNC(=O)c2cccc3c2C(=O)N(Cc2cccnc2)C3)cc1 > 76.9 µM, CCCCC(C(=O)NCCC(C)C)N(CCCN1CCOCC1)C(=O)c1snc(C(N)=O)c1N (configuration not stated), CCCC(c1nnnn1Cc1ccc(F)cc1)N1CCN(C2CCCCC2)CC1 (configuration not stated) > 76.9 µM, COc1cccc(-n2nnnc2SCC(=O)c2cc(OC)ccc2OC)c1 > 76.9 µM, Cc1cc(NS(=O)(=O)c2ccc(NC(=O)c3ccco3)cc2)no1 > 76.9 µM, CS(=O)(=O)NCc1csc(-c2ccccc2)n1 > 76.9 µM, CSc1cccc(-n2c(C)cc(C(N)=O)c2C)c1 > 76.9 µM, c1ccc(C(c2nnnn2C2CCCC2)N2CCCCCC2)nc1 (configuration not stated) > 76.9 µM, O=S(=O)(NCC(c1cccnc1)N1CCN(c2ccccc2)CC1)c1cccs1 (configuration not stated), COc1ccc(-c2cc(O)cc(O)c2)cc1 > 76.9 µM, Cc1ccc(N(C(=O)CC2NC(=O)NC2=O)C2(C(=O)NC3CCCC3)CCCCC2)cc1 (configuration not stated) > 76.9 µM, O=C(Cn1[nH]c(=O)c2ccccc2c1=O)Nc1ccc2c(c1)CCC2 > 76.9 µM, CN1CCN(CC(=O)Nc2sc3c(c2C#N)CCC(C(C)(C)C)C3)CC1 (configuration not stated) > 76.9 µM, CN(C)CCNC(=O)c1coc(=O)c(Br)c1 > 76.9 µM, Cc1ccc(Cn2cccc(NC(=O)c3ccco3)c2=O)cc1 > 76.9 µM, COc1ccc(N2CCN(C(=O)Cc3ccc(-n4c(=O)[nH]c5ccccc5c4=O)cc3)CC2)cc1 > 76.9 µM, Cc1nnc(N(CCC#N)CCC#N)s1 > 76.9 µM, CCN(CC)c1ccc(NC(=O)c2cccc(C)c2OC)c(C)c1 > 76.9 µM, C=CCCC(=O)Nc1ccc(COC(=O)N2CCOCC2)cc1 > 76.9 µM, Cc1ccc(-n2ncc(C#N)c2/N=C/N(C)C)cc1 > 76.9 µM, COc1ccc(CNC(=O)CN(C(=O)CCC(=O)Nc2ccccn2)c2ccccc2OC)cc1 > 76.9 µM, COC(=O)CCCCCNc1ccc(C(=O)OC)cc1N > 76.9 µM, Cc1ccc(NC(=O)Cn2nnc(C(=O)NCc3ccccc3)c2N)cc1C > 76.9 µM, COc1ccc(S(=O)(=O)Nc2c(C)n(C)n(-c3ccccc3)c2=O)cc1 > 76.9 µM, O=S1(=O)C=C(Oc2ccc(F)cc2)c2ccccc21 > 76.9 µM, COc1ccc(CCNC(=O)CN(c2ccccc2OC)S(C)(=O)=O)cc1 > 76.9 µM, O=C1CCCc2c1nc(-c1ccccc1)n2O > 76.9 µM, Cc1cc(C)cc(OCC(=O)N(Cc2cccs2)C2CCS(=O)(=O)C2)c1 (configuration not stated) > 76.9 µM, COc1ccc(-n2c(C)cc(=O)c3c2CC(C)(C)CC3=O)cc1 > 76.9 µM, CCCCOC(=O)n1c(SCC(=O)N(CC)CC)nc2ccccc21 > 76.9 µM, CCOC(=O)CNC(=O)Nc1nnc(-c2ccc(OCC)cc2)o1 > 76.9 µM, CCOC(=O)NC(=O)CN1C(=O)NC(C)(c2ccccc2)C1=O (configuration not stated) > 76.9 µM, O=C(Nc1ccc(OC(F)(F)F)cc1)C1CCCN(S(=O)(=O)c2cccnc2)C1 (configuration not stated) > 76.9 µM, COc1ccc(Cn2c(=O)[nH]c3cc(C(=O)NCc4ccc5c(c4)OCO5)ccc3c2=O)cc1 > 76.9 µM, COc1ccc(OC)c(-c2csc(N(Cc3ccco3)C(=O)c3cccs3)n2)c1 > 76.9 µM, COc1cccc(-n2c(C)nnc2SCC(=O)Nc2ccccc2N2CCOCC2)c1 > 76.9 µM, O=C(c1ccc(CS(=O)(=O)Cc2ccc(Cl)cc2)o1)N1CCCC1 > 76.9 µM, O=C(c1ccc(N2CN(C(=O)c3ccco3)c3nc4ccccc4nc32)cc1)N1CCOCC1 > 76.9 µM, O=C1NC(c2ccncc2)Nc2ccccc21 (configuration not stated) > 76.9 µM, COc1ccc(-c2cc(C(F)(F)F)n3nc(C(=O)Nc4cc(C)on4)cc3n2)cc1OC > 76.9 µM, CCc1nnc2sc(-c3ccc(NC(=O)CSc4ccc(Cl)cc4)cc3)nn12 > 76.9 µM, Cc1nc2ccccc2c(=O)n1NCc1cccs1 > 76.9 µM, Cc1cc(/C(=N/O)C(C)(C)NO)ccc1Cl > 76.9 µM, Cc1ccc(CNC(=O)CCS(=O)(=O)c2cc(Br)cc3c2N(C(=O)C2CC2)CC3)o1 > 76.9 µM, O=C(CN1C(=O)c2ccccc2S1(=O)=O)NCc1cccnc1 > 76.9 µM, c1cncc(-c2nc(-c3ccc4c(c3)OCO4)cs2)c1 > 76.9 µM, O=C(CSc1n[nH]c(-c2cccs2)n1)N1CCN(S(=O)(=O)c2ccccc2)CC1
